Measured values: PubChem BioAssay AID624417 (National Center for Advancing Translational Sciences (NCATS), 2012)
Hit rate of the full screen: of about 410,000 compounds, about 6,400 (1.6%) were called active. The inconclusive results got no clear call from the source; some entries with a clear call stand among them for comparison. The call rests on the fitted dose curve; in most records, active means well fitted inhibition curve with a large enough effect; inconclusive means small, poorly fitted or top-dose-only effect; inactive means no such curve, though single readings can be large or run the other way. Where the call is inconclusive, the potency comes from a doubtful curve fit.

What follows are compounds tested against Glucagon-like peptide 1 receptor (Homo sapiens) (UniProt P43220) (assay: qHTS of GLP-1 Receptor Inverse Agonists (Inhibition Mode)). Conditions: HEK293 GLP-1R CRE-luciferase, luminescence, 24 h, GLP-1R form is constitutively active; activity change, negative = inhibition: at 38.3 µM (top of the series) unless noted.
Sequence of UniProt P43220 (P43220 whole entry, looked up): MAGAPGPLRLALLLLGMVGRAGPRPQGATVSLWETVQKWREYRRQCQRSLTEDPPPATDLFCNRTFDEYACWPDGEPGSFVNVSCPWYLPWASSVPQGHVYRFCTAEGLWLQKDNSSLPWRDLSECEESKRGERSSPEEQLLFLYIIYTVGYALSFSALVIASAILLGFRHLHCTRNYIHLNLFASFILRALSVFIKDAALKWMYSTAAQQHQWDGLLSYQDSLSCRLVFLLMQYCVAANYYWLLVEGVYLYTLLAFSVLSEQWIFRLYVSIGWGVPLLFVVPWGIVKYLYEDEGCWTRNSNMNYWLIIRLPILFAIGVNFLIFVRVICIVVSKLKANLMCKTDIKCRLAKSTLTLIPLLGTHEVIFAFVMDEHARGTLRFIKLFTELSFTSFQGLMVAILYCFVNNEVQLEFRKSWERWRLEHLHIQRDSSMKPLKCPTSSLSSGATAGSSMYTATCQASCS
In short: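 Using stably transfected HEK293 (constitutively active GLP-1R, cAMP-luciferase reporter), compounds were incubated 24 hr and luciferase measured by luminescence.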
Further: nearly all actives have a fitted effect of over 55% in size.
On the % scale 0 is the no-effect control and ±100 the full control effect; potency means the concentration at half of the fitted maximal effect; tags describe the fitted curve by direction and shape.

Potency, inconclusive:
N#CCC(CNc1ncc(C(F)(F)F)cc1Cl)OC(=O)c1ccc(Cl)cc1Cl (stereo not drawn) 28.2 µM [inhibitor, single point]
Cc1cccc(N2CCN(S(=O)(=O)c3c(C(=O)N4CCC(C)CC4)c(C)n(C)c3C)CC2)c1C 28.2 µM [inhibitor, single point]
CCOC(=O)c1ccn(-c2nc(-c3cccc(OC)c3)cc(C(F)(F)F)n2)n1 11.2 µM [inhibitor, partial curve, poor fit]
CCc1ccc2oc(C(=O)Nc3nonc3C)c(C)c2c1 10 µM [inhibitor, partial curve, poor fit]
CCOC(=O)c1[nH]c(C)c(CCC(=O)Nc2ccc(Br)c(C)c2)c1C 8.91 µM [inhibitor, partial curve, poor fit]
Cc1ccc(NC(=S)NCC(O)c2ccccc2)c(C)c1 (stereo not drawn) 20 µM [inhibitor, single point]
O=C(/C=C/c1cccs1)NC(=S)Nc1ccccc1 28.2 µM [inhibitor, single point]
COc1ccc(O)c(/C=N/n2c(-c3ccco3)csc2=Nc2cccnc2)c1 28.2 µM [inhibitor, single point]
COc1cccc(NC(=O)N(Cc2c[nH]c3ccccc23)C2CCCCC2)c1 10 µM [inhibitor, single point]
Cc1nc(-c2ccc(S(=O)(=O)N3CCN(C(c4ccccc4)c4ccccc4)CC3)s2)cs1 7.94 µM [inhibitor, partial curve, poor fit]
Cc1ccc(NC(=O)c2cnn(-c3ccccc3)c2C)cc1 0.447 µM [inhibitor, full curve, poor fit]
CC(C)c1ccc(NC(=O)CCn2c(=O)c3cccn3c3ccccc32)cc1 28.2 µM [inhibitor, single point]
COc1cc(O)cc2c1[C@@H]1Oc3c(ccc(O)c3CC=C(C)C)[C@@H]1CO2 31.6 µM [inhibitor, single point]
COc1cccc(CNC(=O)C(CC(C)C)NC(=O)c2ccccc2C)c1 (stereo not drawn) 17.8 µM [inhibitor, partial curve, poor fit]
CCOCCCn1c(SCC(=O)Nc2ccccc2OC)nc2ccccc2c1=O 10 µM [inhibitor, single point]
Cc1ccc(C(C(=O)NC2CCCCC2)N(Cc2cccnc2)C(=O)C2COc3ccccc3O2)o1 (stereo not drawn) 11.2 µM [inhibitor, single point]
CC(=O)Nc1ccc(-c2ccnc3c2CC(C(=O)Nc2ccc(Cl)c(C(F)(F)F)c2)O3)cc1 (stereo not drawn) 10 µM [inhibitor, partial curve, poor fit]
O=C(Nc1cccc(OC(F)(F)F)c1)C1Cc2c(-c3cccc(F)c3)ccnc2O1 (stereo not drawn) 31.6 µM [inhibitor, single point]
Fc1ccc(NC(=S)NN=Cc2ccccc2Cl)cc1 2.82 µM [inhibitor, full curve, poor fit]
Cc1[nH]nc2c1C(c1cccc(O)c1)C1=C(CC(C)(C)CC1=O)N2 (stereo not drawn) 3.55 µM [inhibitor, full curve]
Cc1c(CC(=O)Nc2ccc(Cl)cc2)sc2ccc(Cl)cc12 3.55 µM [inhibitor, full curve]
COc1ccc(-c2nc(-c3ccccc3)c(-c3ccc(F)cc3)[nH]2)c(OC)c1C 8.91 µM [inhibitor, partial curve, poor fit]
CCOC(=O)c1ccc(Oc2nc(SC)nc(N(C)C)n2)cc1 10 µM [inhibitor, partial curve, poor fit]
O=C(Cn1nnc(-c2ccc(F)cc2)n1)Nc1cccc(S(=O)(=O)N2CCCC2)c1 25.1 µM [inhibitor, single point]
COc1ccccc1N(CC(=O)NCCSc1ccccc1)S(=O)(=O)c1ccccc1 12.6 µM [inhibitor, single point]
CCOc1ccc(Br)cc1S(=O)(=O)NC1CC(C)(C)NC(C)(C)C1 10 µM [inhibitor, partial curve]
CCN(c1ccc(OC)cc1)S(=O)(=O)N1CCCC(C(=O)NCc2ccccc2Br)C1 (stereo not drawn) 4.47 µM [inhibitor, partial curve, poor fit]
COc1ccccc1N1CCN(C(=O)c2ccc(Br)o2)CC1 4.47 µM [inhibitor, partial curve]
COc1cc(OC)cc(C(=O)NC(C(=O)Nc2ccc3c(c2)CCC3)C(C)C)c1 (stereo not drawn) 11.2 µM [inhibitor, partial curve, poor fit]
Nc1ccc(Cl)c(S(=O)(=O)Nc2ccc(Cl)cc2)c1 8.91 µM [inhibitor, partial curve, poor fit]
COc1ccc(NC(=O)c2cccc(N3C(=O)C4C5C=CC(C6CC56)C4C3=O)c2)c(OC)c1 (stereo not drawn) 3.98 µM [inhibitor, partial curve, poor fit]
COc1ccc(COc2cc(-c3cccc(OC)c3)nc3ccc(NC(=O)c4ccc(OC)cc4)cc23)cc1 1.58 µM [inhibitor, full curve, poor fit]
Cc1ncc(CN2CCCC(C(=O)Nc3ccc(-c4ccco4)cc3)C2)n1C (stereo not drawn) 28.2 µM [inhibitor, single point]
CC1CC(C)CN(CCOCCSc2ccc(Cl)cc2)C1 (stereo not drawn) 10 µM [inhibitor, partial curve, poor fit]
Cc1ccc(-c2onc(C)c2C)cc1S(=O)(=O)N1CCOc2ccccc21 12.6 µM [inhibitor, single point]
O=C(CN1CCN(S(=O)(=O)c2ccc(Cl)c(C(F)(F)F)c2)CC1)NC(=O)NC1CCCCC1 28.2 µM [inhibitor, single point]
Cc1nc(CCNC(=O)c2cc(COc3ccc(F)cc3Cl)on2)sc1C 10 µM [inhibitor, partial curve, poor fit]
CC1CC(CC(=O)NNc2nc(-c3ccccc3)cs2)C(=O)O1 (stereo not drawn) 7.94 µM [inhibitor, partial curve, poor fit]
O=C(CSc1n[nH]c(-c2ccccc2O)n1)N1CCCc2ccccc21 5.62 µM [inhibitor, partial curve]
NCCOc1ccccc1-c1ccccc1 7.94 µM [inhibitor, partial curve]
Cc1noc(C)c1S(=O)(=O)Nc1ccc2c(c1)C(=O)N([C@@H](C)CO)C[C@H](C)[C@@H](CN(C)Cc1ccc(C(F)(F)F)cc1)OCCCC[C@H](C)O2 10 µM [inhibitor, partial curve, poor fit]
Cc1cc(S(=O)(=O)Nc2nc(CN3CCOCC3)nc3sc4c(c23)CCCC4)ccc1F 3.55 µM [inhibitor, partial curve, poor fit]
Cc1cc(C)cc(Nc2cc(C)nc3nc(-c4ccco4)nn23)c1 25.1 µM [inhibitor, single point]
Cc1ccccc1CNC(=O)c1ccc2[nH]c(C)c(C)c2c1 28.2 µM [inhibitor, single point]
COc1ccc(C(=O)c2ccc([N+](=O)[O-])cc2Cl)cc1 22.4 µM [inhibitor, single point]
CC1(C)C2CCC1(C)C(NCC(O)COc1ccc(C#N)cc1)C2 (stereo not drawn) 11.2 µM [inhibitor, single point]
Cc1cccc(N2CCN(C(=O)CSc3nnnn3C3CC3)CC2)c1C 12.6 µM [inhibitor, single point]
O=C(CN1C(=O)CC(c2ccco2)Sc2ccccc21)Nc1ccccc1F (stereo not drawn) 28.2 µM [inhibitor, single point]

Potency, active:
CC1CN(C(=O)CCC(=O)NCc2ccccc2)c2cc(Cl)ccc2O1 (stereo not drawn) 10 µM

Activity change, negative = inhibition, inactive:
COC(=O)c1ccc(NC(=O)CC2C(=O)N(c3ccccc3)C(=O)N2Cc2ccco2)cc1 (stereo not drawn) 1.76%
COc1cc(C(=O)Nc2nonc2-c2ccc(Cl)cc2)cc(OC)c1OC -29.5%
Cc1ccc(N2CC(NC(=O)C3CC3)CC2=O)cc1C (stereo not drawn) 6.18%
COc1cccc2sc(=NC(=O)CCS(=O)(=O)c3ccc(C)cc3)n(C)c12 -10.6%
c1ccc(Sc2ccncc2)cc1 6.19%
COc1ccc(C2=NOC(CN3C(=O)c4ccccc4S3(=O)=O)C2)cc1 (stereo not drawn) 71.3%
CC(C)(C)NC(=O)c1ccc2nc(CCc3ccccc3)oc2c1 -15.9%
CN(CC(=O)Nc1cccc(F)c1)C(=O)CCN1C(=O)C2CC=CCC2C1=O (stereo not drawn) -5.88%
C/C(=N\O)c1sc(-c2ccccc2)nc1C 60.9%
CN(C)CCOc1ccc(C(C)(C)c2ccccc2)cc1 -16% [at 7.66 µM]
CCC(C)NC(=O)Cn1c(-c2cccs2)cc2cc(Cl)ccc21 (stereo not drawn) -7.4%
Cc1ccc(C2CC(C(F)(F)F)n3nc(C(=O)NCCN4CCOCC4)cc3N2)cc1 (stereo not drawn) -14.3%
CC(C)CC1C(=O)N(Cc2cn(CC3CCCCC3)nn2)CCS(=O)(=O)N1Cc1ccc(-c2ccc(Cl)c(Cl)c2)cc1 (stereo not drawn) -21.2%
CC1=NN(C(N)=S)C(=O)C1N=Nc1cccc(C(=O)O)c1 (stereo not drawn) -13.3%
